T1: UNK ZnF1-3 (human, UniProt Q9C0B0 31-174)
T1 sequence: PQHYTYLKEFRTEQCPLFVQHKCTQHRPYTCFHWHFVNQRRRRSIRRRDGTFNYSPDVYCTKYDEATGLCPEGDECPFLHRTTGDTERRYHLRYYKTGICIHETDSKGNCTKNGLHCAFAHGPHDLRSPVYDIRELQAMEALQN

B1: 53240759_53241010_1544_CDS_ENSG00000126012_ENST00000404049|human|control|control (ssRNA)
RNA: GGGAGUUCUACAGUCCGACGAUCAUACUCAACAGUCACAUCUUCCUCAAUGCUAUUUACCAGCCUCCAGAACUCCUUCUCCACAAGUUCUGUGGGCACCAUAUGCACGGGCAUGUUGAAGUAGUCAGCUUUAAAGGAGUCGGCCAACAGAGGAUUGAGCAUCA
B2: chr2:31460152:31460153:+_ENSMUSG00000026843_ENSMUST00000055244|mus_hu|FALSE|FALSE (ssRNA)
RNA: GGGAGUUCUACAGUCCGACGAUCAUUCUGGAUCUUUUUGAUCAUUUCCCCGUUUCUUCCUAUUACAAUCCCCACAGCAAACCUAGGCACAGAUACCUCUAUACUGCCUCCUCCCAUUCGAGAGUUGAAAUCGCCGCGUACACCCAACAGAGGAUUGAGCAUCA
B3: chr12:89993059:89993060:-_ENSG00000070961_ENST00000261173|hu_mus|FALSE|FALSE (ssRNA)
RNA: GGGAGUUCUACAGUCCGACGAUCAGGUAUCUCCUCCUUCUGGGUUCCAUGACCAGCUUCUUUUAGAAACUUUAAGCGGCUGGUUGGAAUGGUUGAAAUAAGCUGGCCCCAGAGUAAGGUCCCCAUUCCCAGGAAUAUCGACCACAACAGAGGAUUGAGCAUCA
B4: chr7:141450121:141450122:+_ENSG00000106028_ENST00000265304|hu_mus|hu_hu_hu_mus_True|28_28 (ssRNA)
RNA: GGGAGUUCUACAGUCCGACGAUCUCAUCCGUUCUAUGCCUUUUCUUUUGUCUGGUCACUCAGAAAUAUAAUGUUAUCAGCUAUGAUUGUUGUUGCUUGCCGCCUCACAUUAUUUUUAUCCAUGUACUCGCCAUAGUCCACUUUCAACAGAGGAUUGAGCAUCA
B5: chr1:184023491:184023492:+_ENSG00000198860_ENST00000361641|hu_hu|FALSE|FALSE (ssRNA)
RNA: GGGAGUUCUACAGUCCGACGAUCCAUGAGGUCCAGGUAAACCAAGAACGCUACAUAAACUUGGGUGGCAUCUCCUAUAUCUAAUUCCAUCAUUUCUAGAUACUUAGGGUGAGUGCCCAUCCAGGCGUCCUCAGGGGCCCACGACAACAGAGGAUUGAGCAUCA
B6: chr7:109302599:109302600:-_ENSMUSG00000063550_ENSMUST00000070165|mus_hu|FALSE|FALSE (ssRNA)
RNA: GGGAGUUCUACAGUCCGACGAUCGGAAUCUUCAUCUCCAUCCUGCUGGUGAUUCUCAUCAACAGGUUUGCUUAGGAAACUAAAUCUCUCUCCAUUUUCUGGAUAUUCAGAUGGUGAAGCUAGAUUUUCUGAAUCACGAUUAACCAACAGAGGAUUGAGCAUCA

The other results are listed elsewhere or left out.

This experiment has as its target T1, UNK ZnF1-3. Nature of the experiment: nsRBNS (natural sequence RNA bind-n-seq); RBNS binding buffer (assumed for nsRBNS): 25 mM Tris pH 7.5, 150 mM KCl, 3 mM MgCl2, 0.01% Triton X-100, 500 ug/ml BSA, 20 U/ml SUPERase-In, 4 C; UNK is unkempt and MSI1 is Musashi-1; names of the RNAs are library labels; protein concentration not given here; high values mean tight binding.
The molecule B1 displayed a binding signal of 1.18 enrichment R. As for B2, the binding signal was found to be 1.02 enrichment R. With B3, the binding signal worked out at 0.956 enrichment R. Regarding B4, the binding signal came to 0.425 enrichment R. In the case of B5, the binding signal was found to be 0.967 enrichment R. Molecule B6 displayed a binding signal of 0.353 enrichment R.
